# Assay results from a collection of fitness landscapes (doi:10.1016/j.celrep.2020.107928).
# In all, about 81,000 sequences were measured (“one-hybrid fitness for binding NBS DNA”: median about -0.1, highest 2% from about 0.36 on). The list shows a part of the results.
# B1: Caulobacter ParB omega fusion; a variant is named by its letters at X, in order, B8GW30 (parent)
# chain: MESVVVGEPGMSEGRRGLGRGLSALLGEVDAAPAQAPGEQLGGSREAPIEILQRNPDQPRRTFREEDLEDLSNSIREKGVLQPILVRPSPDTAGEYQIVAGERAWRAAQRAGLKTVPIMVRELDDLAVLEIGIIENVQRADLNVLEEALSYKVLMEKFERTQENIAQTIGKSXSHVANXMRLLXLPDEVQSYLVSGELTAXHARAIAAAADPVALAKQIIEGGLSVRETEALARKAPNLSAGKSKGGRPPRVKDTDTQALESDLSSVLGLDVSIDHRGSTGTLTITYATLEQLDDLCNRLTRGI
# Variants of: B1
# Test: one-hybrid fitness for binding NBS DNA (the Noc-binding site; scaled: cognate 1, non-cognate 0); higher = stronger binding
# Conditions: with NBS DNA site
# Procedure, shortened: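 Bacterial one-hybrid selection in E. coli USO rpoZ- hisB- pyrF- with a HIS3 reporter carrying the site 19 bp from the promoter, screening Caulobacter ParB libraries with four specificity codons randomised (NNS). Cells grew 48 hours at 37°C on M9-minus-histidine plus 0.1 mM IPTG and 5 mM 3-AT. Plasmids before and after selection were Illumina-sequenced, three replicate libraries pooled, and variants under 10 reads dropped. Fitness is the log change in variant-to-wild-type read ratio, rescaled to cognate 1, non-cognate 0.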
row,Variant,one-hybrid fitness for binding NBS DNA
1,INVS,≤ 0.2
2,AGWG,≤ 0.2
3,DLQE,≤ 0.2
4,RSMC,≤ 0.2
5,DVRG,≤ 0.2
6,AGCR,≤ 0.2
7,QKMQ,≤ 0.2
8,KSER,≤ 0.2
9,KGKQ,≤ 0.2
10,SSYA,≤ 0.2
11,PCFS,≤ 0.2
12,AYAK,≤ 0.2
13,YFRG,≤ 0.2
14,ADRF,≤ 0.2
15,VMGY,≤ 0.2
16,EVSM,≤ 0.2
17,SPPY,≤ 0.2
18,PMMN,≤ 0.2
19,MWYT,≤ 0.2
20,TQCC,≤ 0.2
21,DSTC,≤ 0.2
22,QEYY,≤ 0.2
23,RVWG,≤ 0.2
24,AKAT,≤ 0.2
25,KVTL,≤ 0.2
26,HLKF,≤ 0.2

row,Variant,one-hybrid fitness for binding NBS DNA
1,GWVW,≤ 0.2
2,KEDT,≤ 0.2
3,PLKN,≤ 0.2
4,RSMY,≤ 0.2
5,KSAG,≤ 0.2
6,KSAC,≤ 0.2
7,TMKY,≤ 0.2
8,IWWV,≤ 0.2
9,QNSG,≤ 0.2
10,DLGT,≤ 0.2
11,RPYT,≤ 0.2
12,PPKS,≤ 0.2
13,QRSH,0.522
14,VWGA,≤ 0.2
15,NCYR,≤ 0.2
16,RASI,≤ 0.2
17,IAMG,≤ 0.2
18,VRNE,≤ 0.2
19,LEMT,≤ 0.2
20,SHEY,≤ 0.2
21,SDML,≤ 0.2
22,KENE,≤ 0.2
23,QLIM,≤ 0.2
24,LLHD,≤ 0.2
25,AASI,≤ 0.2
26,LNHF,≤ 0.2

row,Variant,one-hybrid fitness for binding NBS DNA
1,QAEC,≤ 0.2
2,RTYL,≤ 0.2
3,FWLC,≤ 0.2
4,LCQR,≤ 0.2
5,TATR,≤ 0.2
6,PEEA,≤ 0.2
7,HSGE,≤ 0.2
8,WHQI,≤ 0.2
9,WDIS,≤ 0.2
10,RCMG,≤ 0.2
11,HFRC,≤ 0.2
12,PPWK,≤ 0.2
13,PAMT,≤ 0.2
14,QPQM,≤ 0.2
15,MYRG,≤ 0.2
16,YDME,≤ 0.2
17,STTC,≤ 0.2
18,VAYN,≤ 0.2
19,LLYA,≤ 0.2
20,YSWS,≤ 0.2
21,FWKG,≤ 0.2
22,QNYR,0.203
23,KDSG,≤ 0.2
24,SSEG,≤ 0.2
25,EASG,≤ 0.2
26,APTI,≤ 0.2

row,Variant,one-hybrid fitness for binding NBS DNA
1,RFRR,0.486
2,VKSK,≤ 0.2
3,KHSN,≤ 0.2
4,CVIG,≤ 0.2
5,LYAI,≤ 0.2
6,PRWG,≤ 0.2
7,WWDS,≤ 0.2
8,RPNI,≤ 0.2
9,YSCG,≤ 0.2
10,AFAR,≤ 0.2
11,EDQD,≤ 0.2
12,SSCS,≤ 0.2
13,KNNS,≤ 0.2
14,HTLS,≤ 0.2
15,KKWR,≤ 0.2
16,LITC,≤ 0.2
17,PQNY,≤ 0.2
18,ILKS,≤ 0.2
19,ALAV,≤ 0.2
20,QRIN,≤ 0.2
21,NYQT,≤ 0.2
22,MPHS,≤ 0.2
23,YCYT,≤ 0.2
24,DIPR,≤ 0.2
25,TCFF,≤ 0.2
26,DMFV,≤ 0.2

row,Variant,one-hybrid fitness for binding NBS DNA
1,GTSV,≤ 0.2
2,MSVI,≤ 0.2
3,RNLH,≤ 0.2
4,HKHR,≤ 0.2
5,WRQY,≤ 0.2
6,PQPQ,≤ 0.2
7,YNID,≤ 0.2
8,YPDS,≤ 0.2
9,CNNT,≤ 0.2
10,PFSY,≤ 0.2
11,IQSC,≤ 0.2
12,NVAR,≤ 0.2
13,TKGG,≤ 0.2
14,FITG,≤ 0.2
15,TNGI,≤ 0.2
16,RYPC,≤ 0.2
17,DCNA,≤ 0.2
18,INAT,≤ 0.2
19,WICR,≤ 0.2
20,SATP,≤ 0.2
21,ASHM,≤ 0.2
22,PLGL,≤ 0.2
23,TDSP,≤ 0.2
24,NMMG,≤ 0.2
25,TNQI,≤ 0.2
26,VSHC,≤ 0.2

row,Variant,one-hybrid fitness for binding NBS DNA
1,YKDY,≤ 0.2
2,DRCA,≤ 0.2
3,QSMF,≤ 0.2
4,RIFD,≤ 0.2
5,SCYC,≤ 0.2
6,CSMF,≤ 0.2
7,KAHL,≤ 0.2
8,RWLA,≤ 0.2
9,VGCD,≤ 0.2
10,ELYN,≤ 0.2
11,DGHS,≤ 0.2
12,QQAN,≤ 0.2
13,DFMS,≤ 0.2
14,CIQR,≤ 0.2
15,FKRH,≤ 0.2
16,LCSV,≤ 0.2
17,GMLY,≤ 0.2
18,IGMG,≤ 0.2
19,DAVE,≤ 0.2
20,TPGG,≤ 0.2
21,DRIL,≤ 0.2
22,ETAC,≤ 0.2
23,PYDT,≤ 0.2
